Reference: PubChem BioAssay (NCATS)
Inconclusive means that the source gave no clear call. Such entries were picked first, then a sample of the others. Potencies of inconclusive entries are doubtful fits and often do not repeat. The source made the active and inactive calls. Unless noted, calls follow the shape of the dose curve; as a rule, active = well fitted inhibition curve with a large enough effect; inconclusive = small, poorly fitted or top-dose-only effect; inactive = no such curve, though single readings can be large or run the other way.

Experiments:
[1] = molecular target: Aldehyde dehydrogenase, mitochondrial (Homo sapiens) (UniProt P05091); assay: qHTS for Inhibitors of the Aldehyde Dehydrogenase Family (ALDH2) Confirmatory screens (AID 2061303; active = well fitted inhibition curve with a large enough effect; inconclusive = small, poorly fitted or top-dose-only effect; inactive = no such curve, though single readings can be large or run the other way; title and protocol of this record describe different tests; also: nearly all actives have a fitted effect of over 45% in size; as to activity change, negative = inhibition: % is scaled to controls: 0 for no effect and ±100 for the full control effect); conditions: ALDH inhibition qHTS; activity change, negative = inhibition: at 45.4 µM (top of the series)
[2] = qHTS for Inhibitors of the Aldehyde Dehydrogenase Family (ALDH1A2, ALDH1A3, ALDH2, ALDH3A1) (AID 2061307); conditions: ALDH inhibition qHTS; activity change, negative = inhibition: at 50.3 µM (top of the series) unless noted; also: nearly all actives have a fitted effect of over 50% in size; as to Potency: test system not described further here; as to activity change, negative = inhibition: % is scaled to controls: 0 for no effect and ±100 for the full control effect
[3] = molecular target: Retinaldehyde dehydrogenase 3 (Homo sapiens) (UniProt P47895); assay: qHTS for Inhibitors of the Aldehyde Dehydrogenase Family (ALDH1A3) Confirmatory screens (AID 2061311); conditions: ALDH inhibition qHTS; activity change, negative = inhibition: at 46 µM (top of the series); series mostly up to 46 µM; also: nearly all actives have a fitted effect of over 60% in size
[4] = molecular target: Retinal dehydrogenase 2 (Homo sapiens) (UniProt O94788); assay: qHTS for Inhibitors of the Aldehyde Dehydrogenase Family (ALDH1A2) Confirmation screens (AID 2061314); conditions: ALDH1A2 enzyme inhibition qHTS confirmation; activity, negative = inhibition: at 45.9 µM (top of the series) unless noted; series mostly up to 45.9 µM; also: nearly all actives have a fitted effect of over 65% in size; as to activity, negative = inhibition: % is scaled to controls: 0 for no effect and ±100 for the full control effect
[5] = molecular target: Retinaldehyde dehydrogenase 3 (Homo sapiens) (UniProt P47895); assay: qHTS for Inhibitors of the Aldehyde Dehydrogenase Family (ALDH1A3) Primary screen (AID 2061315); conditions: ALDH inhibition qHTS; activity change, negative = inhibition: at 56 µM (top of the series) unless noted;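 as to activity change, negative = inhibition: plate controls were DMSO vehicle for no effect and reference inhibitor for full effect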
[6] = molecular target: Aldehyde dehydrogenase 1A1 (Homo sapiens) (UniProt P00352); assay: qHTS for Inhibitors of the Aldehyde Dehydrogenase Family (ALDH1A1) Confirmatory screens (AID 2061316); conditions: ALDH inhibition qHTS; activity change, negative = inhibition: at 47.3 µM (top of the series); series mostly up to 47.3 µM; also: nearly all actives have a fitted effect of over 65% in size; as to activity change, negative = inhibition: % is scaled to controls: 0 for no effect and ±100 for the full control effect
Potency is read from the fitted curve at half-maximal effect; tags tell the direction and shape of the fitted curve.

In the case of `COc1cccc(C2c3c(ncn(-c4ccccc4-c4ccccc4)c3=N)Oc3ccc4ccccc4c32)c1` (stereo not given), the Potency [1] is reported as inconclusive: 10 µM [inhibitor, partial curve, poor fit], the Potency [2] is reported as active: 8.91 µM and the Potency [3] is reported as active: 15.8 µM. For the same compound, the Potency [4] was active: 7.98 µM, the Potency [5] was “inactive” and the Potency [6] was inconclusive: 22.5 µM [inhibitor, partial curve, poor fit].
With `Cn1nnnc1Sc1ncnc2scc(-c3cccc(C(F)(F)F)c3)c12` the activity change, negative = inhibition [1] was inconclusive: -99.6% [inhibitor], the Potency [2] was inconclusive: 7.08 µM [inhibitor, full curve] and the Potency [3] was inconclusive: 3.98 µM [inhibitor, full curve, poor fit]. The Potency [4] was inconclusive: 2.52 µM [inhibitor, full curve], the Potency [5] was “inactive” and the Potency [6] was inconclusive: 20.1 µM [inhibitor, partial curve, poor fit].
For `C/C(=C\c1ccc2c(c1)OCO2)C1Nc2cccc3cccc(c23)N1`, the Potency [1] was inconclusive: 20.1 µM [inhibitor, partial curve], the Potency [2] was inconclusive: 28.3 µM [inhibitor, single point] and the Potency [3] was active: 2.83 µM. For the same compound, the Potency [4] was inconclusive: 25.2 µM [inhibitor, partial curve], the Potency [5] was inconclusive: 10 µM [inhibitor, partial curve] and the Potency [6] was inconclusive: 12.7 µM [inhibitor, partial curve].
With `CC(=O)c1cccc(-c2csc(N3CCC(C(N)=O)CC3)n2)c1` the Potency [1] was inconclusive: 25.2 µM [inhibitor, partial curve], the Potency [2] was active: 11.3 µM and the Potency [3] was inconclusive: 7.98 µM [inhibitor, full curve]. For the same compound, the Potency [4] was inconclusive: 12.7 µM [inhibitor, partial curve, poor fit], the Potency [5] was inconclusive: 11.2 µM [inhibitor, partial curve, poor fit] and the Potency [6] was active: 5.65 µM.
For `COc1cc([C@H]2c3cc(O)c(OC)cc3C[C@@H](CO[C@@H]3O[C@H](CO)[C@@H](O)[C@H](O)[C@H]3O)[C@@H]2CO)ccc1O`, the Potency [1] was “inactive”, the Potency [2] was inconclusive: 1.55 µM [inhibitor, full curve] and the Potency [3] was inconclusive: 11 µM [inhibitor, partial curve]. The Potency [4] was “inactive”, the Potency [5] was inconclusive: 11.2 µM [inhibitor, partial curve] and the Potency [6] was inconclusive: 9.79 µM [inhibitor, partial curve, poor fit].
In the case of `Cc1ccc(CNc2ccc(N3CCN(C)CC3=O)cc2)cc1`, the Potency [1] is reported as inconclusive: 15.9 µM [inhibitor, partial curve, poor fit], the Potency [2] is reported as “inactive” and the Potency [3] is reported as inconclusive: 25.2 µM [inhibitor, partial curve, poor fit]. The Potency [4] was inconclusive: 5.65 µM [inhibitor, partial curve, poor fit], the Potency [5] was inconclusive: 31.6 µM [inhibitor, partial curve, poor fit] and the Potency [6] was inconclusive: 12.7 µM [inhibitor, partial curve].
With `Cc1nc(-c2ccccc2)oc1-c1ccc2ncnc(NCc3ncc[nH]3)c2c1` the Potency [1] was inconclusive: 28.3 µM [inhibitor, partial curve, poor fit], the Potency [2] was “inactive” and the Potency [3] was inconclusive: 25.2 µM [inhibitor, partial curve]. The Potency [4] was inconclusive: 22.5 µM [inhibitor, partial curve], the Potency [5] was “inactive” and the Potency [6] was inconclusive: 12.7 µM [inhibitor, partial curve].
With `CC1=CC2=C(C)C(=O)C(C)(O)C(O)C2CO1` (stereo not given) the Potency [1] was inconclusive: 10.1 µM [inhibitor, partial curve], the Potency [2] was inconclusive: 19.1 µM [inhibitor, partial curve] and the Potency [3] was active: 22.5 µM. The Potency [4] was inconclusive: 12.7 µM [inhibitor, partial curve], the Potency [5] was inconclusive: 11.2 µM [inhibitor, partial curve] and the Potency [6] was “inactive”.
For `Cc1ccc2nc3sc(C(=O)NCCc4cccnc4)cc3cc2c1`, the Potency [1] was inconclusive: 7.98 µM [inhibitor, partial curve], the Potency [2] was inconclusive: 28.2 µM [inhibitor, partial curve] and the Potency [3] was active: 12.7 µM. For the same compound, the Potency [4] was inconclusive: 6.34 µM [inhibitor, partial curve], the Potency [5] was inconclusive: 5.01 µM [inhibitor, partial curve, poor fit] and the Potency [6] was inconclusive: 11.3 µM [inhibitor, partial curve].
For `Nc1ccc(Nc2cc(O)c3ncccc3c2)cc1`, the Potency [1] was inconclusive: 4.49 µM [inhibitor, full curve], the Potency [2] was “inactive” and the Potency [3] was active: 0.712 µM. The Potency [4] was inconclusive: 3.57 µM [inhibitor, full curve], the Potency [5] was inconclusive: 0.501 µM [inhibitor, full curve] and the Potency [6] was active: 14.2 µM.
For `Oc1ccc(/C=C/c2ccccc2)c2cccnc12`, the Potency [1] was inconclusive: 8.96 µM [inhibitor, partial curve], the Potency [2] was inconclusive: 6.34 µM [inhibitor, partial curve] and the Potency [3] was active: 14.2 µM. For the same compound, the Potency [4] was inconclusive: 15.9 µM [inhibitor, partial curve], the Potency [5] was inconclusive: 11.2 µM [inhibitor, partial curve, poor fit] and the Potency [6] was inconclusive: 10.1 µM [inhibitor, partial curve].
In the case of `COc1ccc(CCO[C@@H]2O[C@H](CO[C@H]3OC[C@](O)(CO)[C@H]3O)[C@@H](OC(=O)/C=C/c3ccc(O)c(O)c3)[C@H](O[C@@H]3O[C@@H](C)[C@H](O)[C@@H](O)[C@H]3O)[C@H]2O)cc1OC`, the Potency [1] is reported as inconclusive: 9.43 µM [inhibitor, partial curve, poor fit], the Potency [2] is reported as “inactive” and the Potency [3] is reported as inconclusive: 9.43 µM [inhibitor, single point]. The Potency [4] was “inactive”, the Potency [5] was inconclusive: 1.58 µM [inhibitor, partial curve] and the Potency [6] was inconclusive: 8.4 µM [inhibitor, partial curve, poor fit].
In the case of `CSC(=O)OCC1=C[C@@H]2OC(=O)C3=CO[C@@H](O[C@@H]4O[C@H](CO)[C@@H](O)[C@H](O)[C@H]4O)[C@H]1[C@@H]32`, the Potency [1] is reported as “inactive”, the Potency [2] is reported as “inactive” and the Potency [3] is reported as inconclusive: 11 µM [inhibitor, partial curve]. For the same compound, the Potency [4] was “inactive”, the Potency [5] was inconclusive: 5.01 µM [inhibitor, partial curve] and the Potency [6] was “inactive”.
For `O=C1Cc2cc(S(=O)(=O)N3CCN(c4ccc(O)cc4)CC3)ccc2N1`, the Potency [1] was inconclusive: 11.3 µM [inhibitor, partial curve], the Potency [2] was inconclusive: 15.9 µM [inhibitor, partial curve] and the Potency [3] was inconclusive: 28.3 µM [inhibitor, single point]. For the same compound, the Potency [4] was inconclusive: 15.9 µM [inhibitor, partial curve], the Potency [5] was inconclusive: 10 µM [inhibitor, partial curve] and the Potency [6] was active: 11.3 µM.
For `CC(=O)c1c(O)cc(O[C@@H]2O[C@H](CO)[C@@H](O)[C@H](O)[C@H]2O)cc1O`, the Potency [1] was inconclusive: 17.5 µM [inhibitor, partial curve, poor fit], the Potency [2] was inconclusive: 15.6 µM [inhibitor, partial curve] and the Potency [3] was inconclusive: 7.83 µM [inhibitor, partial curve]. The Potency [4] was inconclusive: 17.5 µM [inhibitor, partial curve, poor fit] and the Potency [6] was “inactive”.
In the case of `CC(C)c1ccc(NC(=O)N2CCN(c3ccc(Cl)c(Cl)c3)CC2)cc1`, the Potency [1] is reported as “inactive”, the Potency [2] is reported as inconclusive: 12.6 µM [inhibitor, partial curve, poor fit] and the Potency [3] is reported as inconclusive: 20 µM [inhibitor, partial curve, poor fit]. For the same compound, the Potency [4] was inconclusive: 5.14 µM [inhibitor, partial curve, poor fit] and the Potency [6] was “inactive”.
In the case of `COc1ccc(C2=Nn3c(nnc3-c3ccc(OC)cc3OC)SC2)cc1`, the Potency [1] is reported as inconclusive: 5.01 µM [inhibitor, partial curve, poor fit], the Potency [2] is reported as inconclusive: 10 µM [inhibitor, full curve, poor fit] and the Potency [3] is reported as inconclusive: 31.6 µM [inhibitor, partial curve, poor fit]. For the same compound, the Potency [4] was “inactive” and the Potency [6] was inconclusive: 22.5 µM [inhibitor, partial curve].
With `Oc1ccc(CNc2cc(C(F)(F)F)ccn2)c2cccnc12` the Potency [1] was inconclusive: 14.2 µM [inhibitor, partial curve], the Potency [2] was active: 20.1 µM and the Potency [3] was active: 5.65 µM. The Potency [4] was active: 7.12 µM, the Potency [5] was inconclusive: 11.2 µM [inhibitor, single point] and the Potency [6] was active: 11.3 µM.
In the case of `CN(C)c1ccc(C2N=C(Nc3nc4ccccc4o3)NC3=C2C(=O)CCC3)cc1` (stereo not given), the Potency [1] is reported as inconclusive: 11.3 µM [inhibitor, partial curve], the Potency [2] is reported as inconclusive: 12.7 µM [inhibitor, partial curve] and the Potency [3] is reported as inconclusive: 22.5 µM [inhibitor, partial curve]. For the same compound, the Potency [4] was inconclusive: 15.9 µM [inhibitor, partial curve] and the Potency [6] was inconclusive: 22.5 µM [inhibitor, partial curve].
For `CCC(=O)NC(c1ccco1)c1cc(Br)c2cccnc2c1O` (stereo not given), the Potency [1] was inconclusive: 6.34 µM [inhibitor, partial curve], the Potency [2] was inconclusive: 12.7 µM [inhibitor, partial curve] and the Potency [3] was active: 12.7 µM. The Potency [4] was active: 11.3 µM and the Potency [6] was inconclusive: 14.2 µM [inhibitor, partial curve].
